Measurements from publication PMC4336329 (PLoS ONE, 2015).
About 2,200 (0.71%) of roughly 310,000 compounds showed an effect of 50% or more. The effect is printed as a negative number. Some of the results follow.

target: human ether-à-go-go-related gene (hERG) potassium channel (human, UniProt Q12809); assay: primary screen, population patch clamp on CHO cells stably expressing hERG
Sequence (Q12809 whole entry, looked up): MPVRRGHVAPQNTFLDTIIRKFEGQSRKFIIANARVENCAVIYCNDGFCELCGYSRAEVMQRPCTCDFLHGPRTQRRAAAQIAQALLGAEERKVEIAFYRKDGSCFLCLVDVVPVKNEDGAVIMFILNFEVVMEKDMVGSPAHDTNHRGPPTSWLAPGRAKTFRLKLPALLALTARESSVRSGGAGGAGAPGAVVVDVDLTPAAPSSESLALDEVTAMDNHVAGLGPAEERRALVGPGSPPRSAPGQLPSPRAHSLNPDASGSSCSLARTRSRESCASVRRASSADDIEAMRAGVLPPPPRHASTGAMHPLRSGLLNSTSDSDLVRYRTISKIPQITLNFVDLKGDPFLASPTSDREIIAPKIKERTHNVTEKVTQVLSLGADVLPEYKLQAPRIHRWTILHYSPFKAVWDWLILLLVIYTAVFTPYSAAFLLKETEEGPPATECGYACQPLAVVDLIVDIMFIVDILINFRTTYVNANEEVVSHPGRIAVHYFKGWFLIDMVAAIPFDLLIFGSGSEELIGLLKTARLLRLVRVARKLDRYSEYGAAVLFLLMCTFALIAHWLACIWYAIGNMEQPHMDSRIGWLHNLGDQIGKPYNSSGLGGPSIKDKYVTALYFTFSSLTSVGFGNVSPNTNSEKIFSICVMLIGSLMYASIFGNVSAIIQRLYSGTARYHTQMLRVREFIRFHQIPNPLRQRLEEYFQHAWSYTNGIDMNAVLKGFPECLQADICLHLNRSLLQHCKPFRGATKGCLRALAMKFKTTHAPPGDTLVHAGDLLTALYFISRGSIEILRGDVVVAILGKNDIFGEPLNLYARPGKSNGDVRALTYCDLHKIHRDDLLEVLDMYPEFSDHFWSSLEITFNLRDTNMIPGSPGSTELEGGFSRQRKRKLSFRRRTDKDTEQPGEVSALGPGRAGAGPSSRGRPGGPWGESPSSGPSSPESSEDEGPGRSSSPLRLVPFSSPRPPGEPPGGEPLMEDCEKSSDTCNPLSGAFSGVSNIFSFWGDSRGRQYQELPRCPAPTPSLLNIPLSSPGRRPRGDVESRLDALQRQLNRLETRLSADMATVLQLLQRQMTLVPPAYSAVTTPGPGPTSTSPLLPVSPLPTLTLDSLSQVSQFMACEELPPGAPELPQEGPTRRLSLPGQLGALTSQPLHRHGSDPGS

| Compound | hERG current change (%, negative = inhibition) at 1uM [%] |
| --- | --- |
| COc1cc(OC)c(N(C)S(=O)(=O)c2cccc(C(=O)Nc3nc(C)cs3)c2)cc1Cl | 9.21 |
| Cc1onc(-c2ccccc2)c1C(=O)NC(=S)NNC(=O)c1cccnc1 | 8.33 |
| COc1cc(C(=O)O)nc(OC)n1 | 13.8 |
| Cc1ccc(CN2CCN(Cc3cn(C)nc3-c3ccccc3)CC2CCO)o1 (stereo not shown) | 10.6 |
| COc1ccc(-n2nc3c(=O)[nH][nH]c3cc2=O)cc1 | 8.95 |
| On1nnc2ccc3ccccc3c21 | 10.9 |
| COc1cc(CN(C(=S)NCC(=O)NC2CCCC2)C2CCCC2)cc(OC)c1OC | 2.16 |
| O=C(C[n+]1ccccc1)N/N=C/c1cccc(Cl)c1Cl.[Cl-] | 10.7 |
| NC(Cc1c[nH]c2ccccc12)C(=O)NCc1ccco1 (stereo not shown) | 3.41 |
| CC(=O)NC1(C(Cl)(Cl)Cl)Oc2ccccc2O1 | 12.6 |
| NC(=S)Nc1cccc2cc3ccccc3cc12 | 0.594 |
| CC(C)(C)c1cc(-c2n[nH]c(=S)n2-c2ccccc2F)n[nH]1 | 14 |
| Oc1ccccc1-[n+]1c(-c2ccccc2)cc(-c2ccccc2)cc1-c1ccccc1.[O-][Cl+3]([O-])([O-])[O-] | -40.5 |
| O=C(CSc1nnc(CCc2ccccc2)n1-c1ccc(Cl)cc1)c1ccccc1 | 3.15 |
| Cn1c(=O)c2c(nc(N3CCN(c4ccccn4)CC3)n2Cc2ccccc2Cl)n(C)c1=O | -18.2 |
| CC1CC(C(F)(F)F)n2nc(C(=O)O)cc2N1 (stereo not shown) | -2.59 |
| COC(=O)C1=C(c2ccc(OCc3ccccc3)cc2)C[C@@H]2CC[C@H]1N2C(=O)NCc1ccccc1 | 5.59 |
| Cn1cc(C(=O)c2cccc(Cl)c2Cl)cc1C#N | 6.32 |
| CCOC(=O)N1CCN(C(=O)CNCc2cccs2)CC1.O=C(O)C(=O)O | 7.8 |
| Cc1ccccc1NC(=S)N/N=C/c1ccc(O)cc1O | 8.9 |

| Compound | hERG current change (%, negative = inhibition) at 1uM [%] |
| --- | --- |
| Cc1ccc(CN2CCN(Cc3cccn3-c3nccs3)CC2CCO)cc1 (stereo not shown) | -79.7 |
| COc1ccc(-c2nnc(SCC(=O)Nc3ccc(C)cc3)n2C)cc1 | 8.11 |
| O=C(CN(Cc1ccccc1F)S(=O)(=O)c1ccc(Cl)cc1)NCC1CCCO1 (stereo not shown) | 5.49 |
| Cc1ccc2oc(C(=O)NCc3ccc4c(c3)OCO4)c(C)c2c1 | 1.24 |
| COc1ccc(Cl)cc1N1C(=O)C2CCCN2C1c1sccc1C (stereo not shown) | 7.3 |
| CCCCSc1ccc2nc(-c3ccc(C#N)cc3)cn2c1 | 4.18 |
| COC(=O)C1=C(c2cccc(OC)c2OC)C[C@@H]2CC[C@H]1N2C(=O)NCCCOC(C)C | 7.28 |
| COc1cc2c(cc1OC)C(C1C(=O)CC(C)(C)CC1=O)N(C(=O)CCl)CC2 (stereo not shown) | -1.17 |
| CCN1CCN(c2cc(C)c3cc(NC(=S)NCCCN4CCc5ccccc5C4)ccc3n2)CC1 | 9.86 |
| CCc1cccc(C)c1NC(=O)N(C)C1CCCCC1 | 10.6 |
| CC(=O)OC(C(=O)N1CCOCC1)c1c(F)cccc1F (stereo not shown) | 17 |
| CC(C)c1ccc(NC(=O)CN(Cc2ccccc2)S(C)(=O)=O)cc1 | -5.31 |
| O=C(CSc1n[nH]c(=O)n1C1CC1)Nc1ccccc1 | 17.8 |
| CN1CCN(C(=S)c2ccc([N+](=O)[O-])cc2)CC1 | 16.3 |
| O=C(C1CCN(C2CCN(C/C=C/c3ccccc3)CC2)CC1)N1CCOCC1 | -8.37 |
| O=C(Nc1ccc(S(=O)(=O)N2CCOCC2)cc1)c1ccccc1 | 13.6 |
| O=C(O)C(C(=O)Oc1ccccc1)C(C(=O)O)C(=O)Oc1ccccc1 (stereo not shown) | 14.4 |
| Cc1cc(C)n(CCC(=O)Nc2ccc3c(c2)OCCO3)n1 | 15.4 |
| Br.CC(Oc1ccccc1)C(=O)NN1Cc2ccccc2C1=N (stereo not shown) | 21.9 |
| Cc1ccccc1OCCNc1cc(N2CCCCC2)ccc1[N+](=O)[O-] | -3.62 |

| Compound | hERG current change (%, negative = inhibition) at 1uM [%] |
| --- | --- |
| C=CCOc1c(Br)cc(/C=N/O)cc1OCC | -1.88 |
| O=[N+]([O-])c1ccc(NNS(=O)(=O)c2cc(Cl)ccc2Cl)nc1 | -44.4 |
| O=C(/C=C/c1ccc(S(=O)(=O)N2CCOCC2)cc1)NCCCn1ccnc1 | 29.2 |
| O=S(=O)(c1ccc(S(=O)(=O)N2CCC3(CC2)OCCO3)cc1)N1CCCC1 | 5.54 |
| Cc1c(N=Cc2cc3c(cc2Cl)OCO3)c(=O)n(-c2ccccc2)n1C | 6.34 |
| CC(C)N(c1nnc(N)s1)C(C)C | -2.87 |
| O=C(CC1C(=O)NCCN1C(=O)Nc1ccccc1)Nc1ccc2c(c1)OCCO2 (stereo not shown) | 0.971 |
| O=C(Nc1ccc(Cl)cn1)c1cccc2ccccc12 | 7.91 |
| COc1ccccc1N1CCN(C(CNS(C)(=O)=O)c2cccnc2)CC1 (stereo not shown) | 14.1 |
| Clc1ccc(Cn2cccc2C2=NCCO2)cc1 | 11 |
| CCOC(=O)C(=O)NCC(c1ccco1)S(=O)(=O)c1cccs1 (stereo not shown) | 3.44 |
| CC(=O)c1cccc(S(=O)(=O)Nc2cc(C(F)(F)F)ccc2N2CCOCC2)c1 | 16.4 |
| O=C(CSC1=NCCS1)N1CCc2ccccc21 | 2.29 |
| O=C(c1cc(C2CC2)on1)N1CCN(c2ccc(F)cc2)CC1 | -11 |
| Cc1ccc(CN2CCN(Cc3c(C)nn(-c4ccc(F)cc4)c3C)CC2CCO)o1 (stereo not shown) | 6.24 |
| O=C1CCN(C(=O)CCCn2c(=O)oc3ccccc32)CC1 | 16.8 |
| CCOc1ccc(S(=O)(=O)N(C)c2ccc(OCC(=O)NCc3ccco3)cc2)cc1 | 5.17 |
| Cc1[nH]c(=O)c(C#N)c2c1COC(C)(C)C2 | 13.8 |
